# This is one part of the list.
# How the values were obtained:
# Assay in all cases: glycan array binding signal (z-score within array); higher = stronger binding
# Details in all cases: glycan notation: IUPAC condensed, linker removed
# Neu5Ac(a2-8)Neu5Ac = target: Neu5Ac(a2-8)Neu5Ac
# Procedure, shortened: (§1)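 Arrays were curated from the Consortium for Functional Glycomics database, 3228 in total, and kept only where the protein sequence was available. Binding is expressed as a within-array Z-score. This score was averaged across arrays of the same protein sequence at different concentrations or buffers and across linkers, and negative values can be read as non-binding.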
# [1] = target: Neu5Ac(a2-8)Neu5Ac(a2-3)Gal(b1-3)GalNAc(b1-4)[Neu5Ac(a2-3)]Gal(b1-4)Glc
# Procedure, shortened: as §1
# [2] = target: Neu5Ac(a2-8)Neu5Ac(a2-3)Gal(b1-3)GalNAc(b1-4)[Neu5Ac(a2-8)Neu5Ac(a2-3)]Gal(b1-4)Glc
# Procedure, shortened: as §1
# [3] = target: Neu5Ac(a2-8)Neu5Ac(a2-3)Gal(b1-4)Glc
# Procedure, shortened: as §1
# [4] = target: Neu5Ac(a2-8)Neu5Ac(a2-3)Gal(b1-4)GlcNAc
# Procedure, shortened: as §1
# [5] = target: Neu5Ac(a2-8)Neu5Ac(a2-3)[Gal(b1-3)GalNAc(b1-4)]Gal(b1-4)Glc
# Procedure, shortened: as §1
# [6] = target: Neu5Ac(a2-8)Neu5Ac(a2-3)[GalNAc(b1-4)]Gal(b1-4)Glc
# Procedure, shortened: as §1
# [7] = target: Neu5Ac(a2-8)Neu5Ac(a2-8)Neu5Ac
# Procedure, shortened: as §1
# [8] = target: Neu5Ac(a2-8)Neu5Ac(a2-8)Neu5Ac(a2-3)Gal(b1-4)Glc
# Procedure, shortened: as §1
# [9] = target: Neu5Ac(a2-8)Neu5Ac(a2-8)Neu5Ac(a2-3)[Gal(b1-3)GalNAc(b1-4)]Gal(b1-4)Glc
# Procedure, shortened: as §1
# [10] = target: Neu5Ac(a2-8)Neu5Ac(a2-8)Neu5Ac(a2-3)[GalNAc(b1-4)]Gal(b1-4)Glc
# Procedure, shortened: as §1
# [11] = target: Neu5Ac(a2-8)Neu5Ac(a2-8)Neu5Ac(a2-8)Neu5Ac(a2-3)[GalNAc(b1-4)]Gal(b1-4)Glc
# Procedure, shortened: as §1
# [12] = target: Neu5Ac(a2-8)Neu5Gc(a2-3)Gal(b1-4)GlcNAc
# Procedure, shortened: as §1
# [13] = target: Neu5Ac(b2-6)Gal(b1-4)GlcNAc
# Procedure, shortened: as §1
# Neu5Ac(b2-6)GalNAc = target: Neu5Ac(b2-6)GalNAc
# Procedure, shortened: as §1
# [14] = target: Neu5Ac9Ac(a2-3)Gal(b1-3)GlcNAc
# Procedure, shortened: as §1
# [15] = target: Neu5Ac9Ac(a2-3)Gal(b1-4)GlcNAc
# Procedure, shortened: as §1
# [16] = target: Neu5Ac9Ac(a2-6)Gal(b1-4)GlcNAc
# Procedure, shortened: as §1
# [17] = target: Neu5Gc(a2-3)Gal(b1-3)GlcNAc
# Procedure, shortened: as §1
# [18] = target: Neu5Gc(a2-3)Gal(b1-3)[Fuc(a1-4)]GlcNAc
# Procedure, shortened: as §1
# Neu5Gc(a2-3)Gal(b1-4)Glc = target: Neu5Gc(a2-3)Gal(b1-4)Glc
# Procedure, shortened: as §1
# [19] = target: Neu5Gc(a2-3)Gal(b1-4)GlcNAc
# Procedure, shortened: as §1
# [20] = target: Neu5Gc(a2-3)Gal(b1-4)GlcNAc(b1-3)Gal(b1-4)GlcNAc(b1-2)Man(a1-3)[Neu5Gc(a2-3)Gal(b1-4)GlcNAc(b1-3)Gal(b1-4)GlcNAc(b1-2)Man(a1-6)]Man(b1-4)GlcNAc(b1-4)GlcNAc
# Procedure, shortened: as §1
# [21] = target: Neu5Gc(a2-3)Gal(b1-4)[Fuc(a1-3)]GlcNAc
# Procedure, shortened: as §1
# [22] = target: Neu5Gc(a2-6)Gal(b1-4)GlcNAc
# Procedure, shortened: as §1
# Neu5Gc(a2-6)GalNAc = target: Neu5Gc(a2-6)GalNAc
# Procedure, shortened: as §1
# [23] = target: Neu5Gc(a2-8)Neu5Ac(a2-3)Gal(b1-4)GlcNAc
# Procedure, shortened: as §1
# [24] = target: Neu5Gc(a2-8)Neu5Gc(a2-3)Gal(b1-4)GlcNAc
# Procedure, shortened: as §1
# [25] = target: Neu5Gc(a2-8)Neu5Gc(a2-3)Gal(b1-4)GlcNAc(b1-3)Gal(b1-4)GlcNAc
# Procedure, shortened: as §1
# [26] = target: Neu5Gc(a2-8)Neu5Gc(a2-6)Gal(b1-4)GlcNAc
# Procedure, shortened: as §1
# [27] = target: Neu5Gc(b2-6)Gal(b1-4)GlcNAc
# Procedure, shortened: as §1
binder,measurement,setting,value
B1257 (Bifidobacterium sp) (protein) MKKSIRLVAAIAALAMTAGISACGSSTNGNQAKSDVTAQDVETALTDTSKNVELTVWAYSAKQMEPTVKAFEKKYPHIKINFVNTGAAGDHFTKFQNVVQAQKDIPDVVQMGANKFQQFAVSGALLNFANDSIEKAWSKLYTKTAWAQVHYAGGLYGAPQDATPLANYVRKDILDEHNLQVPESWEDIYNEGIKLHKEDSNKYMGILGSDISFFTNLYRSVGARLWKVNSVDDVELTMNSGKAKEFTEFLQKCLKDGVLEGGTVFTDEFNRSINDGRYATFINENWMGNTYKEQNPSLKGKMVVAAPPSWKGQPYQSSSVGSMMSVSAACPKEKQAAALAFINWLDSDKDAIQSWQDTNNGNFFMAASVYQDDENQRNKKETDGYYANDDVNAVYFDSMDKVNTDWEYLPFMSQVEVVFNDVIVPQMNENGDLVGAMAKAQQELKTYAKDNGFKVTTDAD,glycan array binding signal (z-score),Neu5Ac(a2-8)Neu5Ac,-0.116
same,glycan array binding signal (z-score),[1],-0.085
same,glycan array binding signal (z-score),[2],-0.004
same,glycan array binding signal (z-score),[3],-0.165
same,glycan array binding signal (z-score),[4],-0.063
same,glycan array binding signal (z-score),[5],-0.153
same,glycan array binding signal (z-score),[6],-0.037
same,glycan array binding signal (z-score),[7],-0.056
same,glycan array binding signal (z-score),[8],-0.159
same,glycan array binding signal (z-score),[9],-0.128
same,glycan array binding signal (z-score),[10],-0.069
same,glycan array binding signal (z-score),[11],-0.223
same,glycan array binding signal (z-score),[12],-0.255
same,glycan array binding signal (z-score),[13],-0.094
same,glycan array binding signal (z-score),Neu5Ac(b2-6)GalNAc,-0.111
same,glycan array binding signal (z-score),[14],-0.049
same,glycan array binding signal (z-score),[15],-0.127
same,glycan array binding signal (z-score),[16],-0.125
same,glycan array binding signal (z-score),[17],-0.106
same,glycan array binding signal (z-score),[18],-0.065
same,glycan array binding signal (z-score),Neu5Gc(a2-3)Gal(b1-4)Glc,0.085
same,glycan array binding signal (z-score),[19],0.063
same,glycan array binding signal (z-score),[20],0.051
same,glycan array binding signal (z-score),[21],-0.012
same,glycan array binding signal (z-score),[22],-0.004
same,glycan array binding signal (z-score),Neu5Gc(a2-6)GalNAc,-0.027
same,glycan array binding signal (z-score),[23],0.07
same,glycan array binding signal (z-score),[24],-0.09
same,glycan array binding signal (z-score),[25],-0.138
same,glycan array binding signal (z-score),[26],-0.091
same,glycan array binding signal (z-score),[27],-0.058

# — the supplement of paper PMC8728848
